According to PMC9911399, “Two distinct binding modes provide the RNA-binding protein RbFox with extraordinary sequence specificity”:
Changes are numbered by the printed parent chain; changes in the protein carry UniProt numbers. This is one part of the list.

T1: RBFOX1 RRM (Homo sapiens, UniProt Q9NWB1 109-208)
T1 sequence: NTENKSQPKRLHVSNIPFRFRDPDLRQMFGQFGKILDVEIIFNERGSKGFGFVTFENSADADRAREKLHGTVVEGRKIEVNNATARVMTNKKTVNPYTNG

B1: UAUCCUU (DNA:RNA)
RNA: GGGAGACCGGAAUUCAGAUUGUCCUAUCCUUUUAAAUCCCGUCGUAGCCACCA
DNA 1: CAATCTGAATTCCGGTCTCCC
DNA 2: TGGTGGCTACGACGGGATT
B2: AGGCGGC (DNA:RNA)
RNA: B1 RNA with U25A, A26G, U27G, C29G, U30G, U31C
DNA 1: CAATCTGAATTCCGGTCTCCC
DNA 2: TGGTGGCTACGACGGGATT
B3: AGGUUCG (DNA:RNA)
RNA: GGGAGACCGGAAUUCAGAUUGUCCAGGUUCGUUAAAUCCCGUCGUAGCCACCA
DNA 1: CAATCTGAATTCCGGTCTCCC
DNA 2: TGGTGGCTACGACGGGATT
B4: UCUCACU (DNA:RNA)
RNA: B1 RNA with A26C, C29A, U30C
DNA 1: CAATCTGAATTCCGGTCTCCC
DNA 2: TGGTGGCTACGACGGGATT
B5: GGGAGCG (DNA:RNA)
RNA: B3 RNA with A25G, U28A, U29G
DNA 1: CAATCTGAATTCCGGTCTCCC
DNA 2: TGGTGGCTACGACGGGATT
B6: CUAGAAG (DNA:RNA)
RNA: B3 RNA with A25C, G26U, G27A, U28G, U29A, C30A
DNA 1: CAATCTGAATTCCGGTCTCCC
DNA 2: TGGTGGCTACGACGGGATT
B7: CAAAGAU (DNA:RNA)
RNA: B1 RNA with U25C, U27A, C28A, C29G, U30A
DNA 1: CAATCTGAATTCCGGTCTCCC
DNA 2: TGGTGGCTACGACGGGATT
B8: UGGUAUU (DNA:RNA)
RNA: B3 RNA with A25U, U29A, C30U, G31U
DNA 1: CAATCTGAATTCCGGTCTCCC
DNA 2: TGGTGGCTACGACGGGATT
B9: UAAUCUG (DNA:RNA)
RNA: B1 RNA with U27A, C28U, U31G
DNA 1: CAATCTGAATTCCGGTCTCCC
DNA 2: TGGTGGCTACGACGGGATT

What follows are binders tested against T1, RBFOX1 RRM (assay: EMSA; HiTS-Eq, 1 nM pool, 10 min; buffer printed only for the single-RNA assays: 10 mM Tris pH 7.5, 150 mM NaCl, 3.4 mM EDTA, 0.001% NP-40, 30 C). Details: tags: His6 N-terminal (pET28a); label: 5' 32P.
Procedure, shortened: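 Purified RbFox RRM (wild type or mutant) was equilibrated for 10 min in 50 µL with 1 nM of a 5′-radiolabelled pool of RNA with 7 randomized nucleotides, its flanks annealed to DNA oligonucleotides, across increasing protein concentrations. Free RNA was separated by 8% native PAGE, excised, reverse-transcribed, PCR-barcoded and sequenced on an Illumina HiSeq 2500. Relative association constants came from read-count changes of each variant against the control reaction, normalised to the cognate motif.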

Row | Binder | binding signal
1 | B1 | 0.00463 KA relative to UGCAUGU
2 | B2 | 0.0116 KA relative to UGCAUGU
3 | B3 | 0.0219 KA relative to UGCAUGU
4 | B4 | 0.00349 KA relative to UGCAUGU
5 | B5 | 0.0296 KA relative to UGCAUGU
6 | B6 | 0.0105 KA relative to UGCAUGU
7 | B7 | 0.00276 KA relative to UGCAUGU
8 | B8 | 0.0119 KA relative to UGCAUGU
9 | B9 | 0.0136 KA relative to UGCAUGU
